# Experimental data from the supplement of paper PMC11417369.
# ± gives the standard deviation of the averaged measurements. This is one part of the list.
# Test system: PfAP2-EXP AP2 domain (GST-tagged)
# Test: gcPBM binding intensity (ln(normalized median fluorescence intensity)); higher = stronger DNA binding
# Method in brief: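 The highest Masliner-normalised natural-log median intensity across replicate spots of either probe orientation is reported as binding intensity. GST-tagged P. falciparum DNA-binding domains expressed in E. coli were applied for 1 h to an Agilent 4 × 180k array of primer-extended double-stranded 36-bp intergenic genomic probes plus negative controls, and bound protein was detected with Alexa488 anti-GST antibody and scanned at 488 nm.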
row,Sequence,gcPBM binding intensity (ln)
1,CTCTTATGCTAGGAAGTGCAATAGTATGGGTACCAC,8.79 ± 0.12
2,TCATTTTATTTTTTCACACACACATATATATATATA [CACACA_site3333],10.1 ± 0.33
3,TTGCCCATTTCATTAACACACAAATGTTTATATTCT [CACACA_site4569],8.87 ± 0.38
4,AATACCCATTTTAGTACACACTTAAAAAATTATTTT [CACACA_site5611],8.61 ± 0.18
5,TTAACTCAAGAGTGTACACATATATATATATATATA [CACACA_site4334],10.2 ± 0.47
6,AAGTATTACAACCACACACACACCTATATATTATAT [CACACA_site4158],8.68 ± 0.52
7,CCAAAGAAATATAATACACACAAGAATATATTGGAT [CACACA_site6018],8.8 ± 0.53
8,AATGAAAAATGTATCGTTAAAGGGTATCTTAAGGAT [XGTACX_negctrl_site222],8.52 ± 0.36
9,ACTTGTTTTCAATGTAAAATACAATTTTCATTTATT [CACACA_negctrl_site435],8.27 ± 0.32
10,TTTTAAACAAAAAATTGTACAATTAGTGTATAATCC [XGTACX_site778],8.62 ± 0.12
11,AAAAAAAAAAGACACACACACAAATACAAATACATA [CACACA_site6334],8.62 ± 0.64
12,AAAGGAAATTAAAATTGATTACATATATAAAAAAAC [XGTACX_negctrl_site196],8.84 ± 0.47
13,AATTTAATATAATGCACACATAAAAAAAAAAAAAAA [CACACA_site123],8.635 ± 0.064
14,CTTTATTATAAGATTACACACATGTGTTATAATTTA [CACACA_site3169],8.4 ± 0.37
15,TTGACCTTAAGAAGGTTGCACTAATCATTCAAAGTT,8.13 ± 0.3
16,CCATTTATTATTTGGGGTACATTTAATTAATATTTT [XGTACX_site5940],9.22 ± 0.47
17,AATATTTTAAGGCACACACACAAAAAAAAAAAAAAA [CACACA_site2890],8.66 ± 0.28
18,ATTTAAGGGGTGTATGCACACGACTATTCCGTATGA [CACACA_site4738],8.53 ± 0.37
19,TAATTTAGTATCTTTACATGCGGGCATTATGTCATA [TGCATGCA_site167],8.57 ± 0.4
20,CCAAAGGGGGTATACTGTACATATAGTGGTTATATA [XGTACX_site1515],8.95 ± 0.014
21,TTTATTAATAGACACACACACACACGCAAAATAAAA [CACACA_site6255],9.01 ± 0.39
22,ATAGGCACTTTTTGCACACGTATGAATAACAAAATA [CACACA_site5069],8.71 ± 0.18
23,TGAAAATTTTAATGAGGAAATAAAATAAATATAATA [GTGCAC_negctrl_site159],8.45 ± 0.36

row,Sequence,gcPBM binding intensity (ln)
1,TTATAGTATTTATAATGTACAAATATATTTTATTTT [XGTACX_site5015],8.28 ± 0.3
2,TTGAATATTTAAAAACGTACATAAAATTATTTGATT [XGTACX_site5422],8.37 ± 0.38
3,ATATATATATTTATAGTGCATTTATATTAAAATATC [GTGCAC_site9818],9.21 ± 0.028
4,TCAAATAGAAAATAAAGTACTTAATTTTTAGGAACA [XGTACX_site1446],8.59 ± 0.41
5,ATATATATTTATATATGTACATATTAATATATATAT [XGTACX_site1144],8.92 ± 0.028
6,ATATTTATATTTTTTTGTACATATATAATTTTATAA [XGTACX_site4151],8.56 ± 0.35
7,GAGCTTTGGATGAAAGCATGCGATGAATGGATAAAA [TGCATGCA_site786],9.14 ± 0.67
8,AAATTAAAATATATATGTACATATATATATATATAT [XGTACX_site7844],10 ± 0.42
9,CTGTAAAATGTGATGGTGCATATTAATTTAGTTGTA,8.78 ± 0.028
10,ATTTATTTCAATAAACTTCTTTTCTTTAACAATTAC [CACACA_negctrl_site1222],8.46 ± 0.67
11,TAAATAGGAAAACCTATACACACTTTAAAAAAAATA [CACACA_site1621],8.17 ± 0.4
12,TAAATTAAAAAAAAAAACAAAAAAAAAGCAACAAAA [CACACA_negctrl_site1318],8.46 ± 0.53
13,ATAAAAATAAATAAATGTACATATATATATATATAT [XGTACX_site1277],10.1 ± 0.4
14,AACACAAATAAGTATTTGGATTATATTACATTTATA [CACACA_negctrl_site465],8.09 ± 0.36
15,AAATATAAAAATAGCACACATATATACATATATATA [CACACA_site56],8.43 ± 0.13
16,TGTCCAATTTTTTATCGTACATAATATATAAATAAA [XGTACX_site1705],8.64 ± 0.29
17,TATTTTTCCCTATGCACACACACCGTATATATAATA [CACACA_site4758],9.13 ± 0.38
18,AGTATTTCCATATGTACATGCAAAAGGAAAGATATA [TGCATGCA_site850],9.03 ± 0.23
19,TATAAAAATGTGTATGTACACACTTTATTTTTAATA [CACACA_site2532],8.22 ± 0.23
20,AGAAACGTAAGTTATACACACATGTCAAAAGAAAAA [CACACA_site312],8.79 ± 0.52
21,CAATGTTAATATAATACACACAATATGTATTTGTCT [CACACA_site1162],8.35 ± 0.32
22,ATCCATCTTTTATATAGTACTTTATAATATATATAT [XGTACX_site8064],9.235 ± 0.078
23,TTGTTAATATATATATGTACTTATTTATTTATTTAT [XGTACX_site2274],8.51 ± 0.35

row,Sequence,gcPBM binding intensity (ln)
1,TTTGAATTTTTTAACACACACATGTCTGGATATATA [CACACA_site1645],8.65 ± 0.45
2,TTTTCCTTAACACACGTTTATATAAAAAATTAAAAT [XGTACX_negctrl_site115],8.42 ± 0.57
3,GAAAAAAAAAAAAAAAGTACATGTCATAAATTGTAT [XGTACX_site1461],8.6 ± 0.47
4,TATATATATATATAATGTACATAATAATAATACATC [XGTACX_site5587],9.84 ± 0.26
5,TAGAAGCATTGACACACACACATACATACACATACA [CACACA_site6802],8.72 ± 0.45
6,GTCTATAACTATTGCGCACACTTTAAAAAAAAAGAA [CACACA_site1003],9.055 ± 0.021
7,CTAGACTTTATTAATTGTACATATGTGTATTTTATA [XGTACX_site480],8.62 ± 0.39
8,GTTACTGCATACATAACACACATATTCAAAACCCAT [CACACA_site5856],8.79 ± 0.54
9,TTTTCCTTTACATAATGTACACAAAAAAAAAAAAAA [XGTACX_site716],8.41 ± 0.48
10,CATCATAGAGTGGAGTGTACAAATATGTCAACATAT [XGTACX_site2264],8.9 ± 0.38
11,TCTTTTTTTTGAATTTGTACATAAGACAATAAAAAA [XGTACX_site4682],8.32 ± 0.35
12,AATACAGACAGACACACACACAAAATAAAATACAAA [CACACA_site245],8.77 ± 0.52
13,ATAAAAAAATCAGACACACACACGTAAACCCATACA [CACACA_site2773],8.74 ± 0.57
14,ACATATTTATATATGTGTACATAAATATTCTTTTAA [XGTACX_site8238],8.06 ± 0.27
15,CATATCCTTACGAACTGTACAATATTAAGAATAAAA [XGTACX_site1651],8.53 ± 0.45
16,ATATATTCAATTCATACACACACAATTTAAGAATGA [CACACA_site9289],8.55 ± 0.42
17,AAAAAAAAAAAACACACACACACACCCATATACATA [CACACA_site2664],8.54 ± 0.64
18,GTAAAAAGATAATGAAGTACATTTTTTCATTTTTAT [XGTACX_site5579],8.19 ± 0.35
19,ATATTAAGGTTTATATTTTAACTTATTATTTTATTC [CACACA_negctrl_site795],8.21 ± 0.36
20,ATTTATTTTTTTATCACACATTTGTGAAATGTGCAT [CACACA_site5869],8.77 ± 0.4
21,ATTTATTACAAATGAATGCACTATATCTTAATTTTG,8.595 ± 0.049
22,TAAGAAAAAAGTAAATGTACAGAGAAAATTATCTAT [XGTACX_site7374],8.59 ± 0.4
23,ATAATTTTGATTATCACACATATATATATATATATG [CACACA_site5882],8.57 ± 0.4

row,Sequence,gcPBM binding intensity (ln)
1,ATATATTTCCTGAGGAGTACTATGAAAGACAAAAAA [XGTACX_site5628],8.7 ± 0.47
2,AAAAAAATTCTGACTTGTACATATAAAATTTACAAA [XGTACX_site4408],7.95 ± 0.26
3,GATTTTTAAAATATCACACATAAAAAAAAAAAAAAA [CACACA_site5516],8.21 ± 0.54
4,TTTGTCATTTTATTATGTACTCAGCATATAGGGGGG [XGTACX_site505],10.7 ± 0.13
5,TAATTTAATAATTAGACACACATGTGGAAAATAAAA [CACACA_site5401],8.98 ± 0.53
6,ACATATATATAAAGGTGTACACATATATATATATAT [XGTACX_site4779],10.2 ± 0.71
7,ATACTAAAGAAACACACACACATATATATATAGAAT [CACACA_site100],8.93 ± 0.49
8,TTTACACCCTAAAAATGTACAAGAAAGATTATATTA [XGTACX_site1102],8.36 ± 0.45
9,ATTTTTTTCCTAATGGTGCGAATAAATATCCATACC,8.88 ± 0.13
10,TTAACAGTAAAACACAGTACATATATACTTAAAACA [XGTACX_site1930],8.59 ± 0.35
11,AAAAAAAAAAAAGGAACACACAAGTAACAATAAATT [CACACA_site2481],8.83 ± 0.54
12,TTTTTTTATTATACTAGTACATATATATACAGCACA [XGTACX_site3464],8.73 ± 0.35
13,AAAGCTTACATATACACACATACATAAATTCATAAA [CACACA_site2469],8.42 ± 0.3
14,TTTTTAATAATCTCTCAAAATGTTCTTATATTTTAC [CACACA_negctrl_site1691],8.11 ± 0.26
15,TAATCTCATAAAACCGCACACACATAAAATTTGCAT [CACACA_site3890],8.69 ± 0.49
16,GAGAAATGGGGACACACACACATATTATAGATATAT [CACACA_site6829],8.83 ± 0.47
17,TAAGGATAAAATAAATGTACATATGTAAAATTATTA [XGTACX_site4170],8.48 ± 0.47
18,TTGTTTGATATCTTTGTCACGAAAAAAATATATATA [GTGCAC_negctrl_site54],8.47 ± 0.45
19,TATATATCTATATATTGTACATATGTTTGTATGTGT [XGTACX_site7420],8.54 ± 0.29
20,TATTTTTACCCATAAAGTACACATAAATATAAAATA [XGTACX_site177],8.66 ± 0.35
21,ATATAAATCATTGGTTGTACATATAATATTTTATAA [XGTACX_site925],8.41 ± 0.26
